# Measured values taken from PubChem BioAssay AID504845 (National Center for Advancing Translational Sciences (NCATS), 2011).
# In all, about 390,000 compounds went through this assay and about 150 (0.038%) were called active. The inconclusive results got no clear call from the source; some entries with a clear call stand among them for comparison. The call rests on the fitted dose curve; in most records, active means well fitted inhibition curve with a large enough effect; inconclusive means small, poorly fitted or top-dose-only effect; inactive means no such curve, though single readings can be large or run the other way. Potencies beside an inconclusive call are fits to weak or partial responses and may not hold up.
# Molecular target: Regulator of G-protein signaling 4 (Homo sapiens) (UniProt P49798)
# Assay: Inhibitors of Regulator of G Protein Signaling (RGS) 4: qHTS; further: nearly all actives have a fitted effect of over 75% in size
# Settings: Transcreener GDP fluorescence polarization, RGS4-accelerated GTP hydrolysis; series mostly up to 114 µM; activity change, negative = inhibition: at the top concentration
# Outline: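 MLSMR compounds (23 nl, pin-transferred) preincubated 10 min at room temperature with a 500nM (2x) first reagent, then RGS4 at 900nM (2x) plus Transcreener GDP mix added; fluorescence polarization (620/688 nm) read before and after 90 min at 30 °C.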
# On the % scale 0 is the no-effect control and ±100 the full control effect; potency means the concentration at half of the fitted maximal effect; tags describe the fitted curve by direction and shape.
# UniProt P49798, sequence (P49798 whole entry, looked up): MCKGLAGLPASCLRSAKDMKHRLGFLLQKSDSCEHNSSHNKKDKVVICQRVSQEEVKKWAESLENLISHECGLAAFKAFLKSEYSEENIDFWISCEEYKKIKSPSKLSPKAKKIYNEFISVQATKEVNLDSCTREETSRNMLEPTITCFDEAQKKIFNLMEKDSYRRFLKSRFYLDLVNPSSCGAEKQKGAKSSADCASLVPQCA
Structure (SMILES),Potency,"activity change, negative = inhibition"
CCOC(=O)C1(C)/C(=N/Nc2ccccc2)C(=O)C(=O)N1c1ccccc1 (stereo unspecified),"inconclusive: 89.1 µM [inhibitor, single point]",
CCCCOc1ccc(C(=O)N(Cc2ccc(C(C)C)cc2)C2CCS(=O)(=O)C2)cc1 (stereo unspecified),,inactive: -8.74%
CCOC(=O)c1c(N)sc(N)c1C(=O)OCC,"inconclusive: 17.8 µM [inhibitor, full curve, poor fit]",
COCc1c(C(=O)OC)nnn1-c1ccc(C(F)(F)F)cc1[N+](=O)[O-],"inconclusive: 79.4 µM [inhibitor, partial curve, poor fit]",
Cc1ccc(S(=O)(=O)NCC2NCCc3ccccc32)cc1 (stereo unspecified),"inconclusive: 79.4 µM [inhibitor, partial curve, poor fit]",
O=C(O)/C=C/C(=O)N1CCN(c2ccc(F)cc2)CC1,"inconclusive: 89.1 µM [inhibitor, partial curve, poor fit]",
O=c1c2ccccc2sn1-c1ccccc1,"inconclusive: 56.2 µM [inhibitor, partial curve, poor fit]",
C/C(=N\NC(N)=S)C1(C)CCCCC1,"inconclusive: 79.4 µM [inhibitor, partial curve, poor fit]",
CCCc1c(NC(=O)Nc2ccc(Cl)cc2Cl)cnn1-c1ccccc1,,inactive: -1.99%
C=Cc1ccc(CN2CCCN(Cc3ccc(Cl)cc3)S2(=O)=O)cc1,"inconclusive: 50.1 µM [inhibitor, partial curve, poor fit]",
CCN(C[C@H]1N[C@@](C)(C(=O)OC)[C@H]2C(=O)N(C)C(=O)[C@@H]12)C(=O)Nc1ccc(Cl)cc1,,inactive: 27.1%
CC(=O)Nc1c(N)c2ccccc2oc1=O,"inconclusive: 39.8 µM [inhibitor, partial curve, poor fit]",
NC(=S)NNc1cccc(Cl)c1,"inconclusive: 50.1 µM [inhibitor, partial curve, poor fit]",
O=C(c1ccccc1F)N1CCN(c2cnn(-c3cccc(Cl)c3)c(=O)c2Cl)CC1,"inconclusive: 17.8 µM [inhibitor, full curve, poor fit]",
O=C(CCN1CCCCC1)c1ccc2c(c1)OCO2,"inconclusive: 44.7 µM [inhibitor, partial curve, poor fit]",
CCCCNC(=O)CCCCCNS(=O)(=O)c1ccc(OC)cc1,,inactive: 28.2%
CCOC(=O)c1c(-c2ccco2)csc1NC(=O)CSc1nnc(N)s1,"inconclusive: 17.8 µM [inhibitor, full curve, poor fit]",
CC(=O)c1ccc(-n2c(C)ccc2-c2ccccc2)cc1,"inconclusive: 79.4 µM [inhibitor, single point]",
CCc1nnc(N/N=C/c2cc(Br)c(O)cc2O)n1N,,inactive: -38.1%
O=c1cc(CO)oc(C(Nc2ccccn2)c2ccccc2F)c1O (stereo unspecified),"inconclusive: 44.7 µM [inhibitor, partial curve, poor fit]",
Cc1cnc(C(=O)Nc2ccc(C)c(S(=O)(=O)N(C)C)c2)cn1,"inconclusive: 50.1 µM [inhibitor, partial curve, poor fit]",
O=C(Cn1c2ccccc2c(=O)c2ccccc21)Nc1cccc(F)c1,"inconclusive: 79.4 µM [inhibitor, partial curve, poor fit]",

Structure (SMILES),Potency,"activity change, negative = inhibition"
CCOc1ccc(C(=O)N2CCCCC2CCN2CCOCC2)cc1 (stereo unspecified),,inactive: 20.5%
COc1ccc(OC)c(N(CC(=O)Nc2cccnc2)S(=O)(=O)c2ccccc2)c1,,inactive: -27.1%
Nc1[nH]c(=O)[nH]c(=O)c1N=Nc1ccccc1Cl,,inactive: 23.1%
COc1ccc(NC(=O)CCC(=O)c2cccs2)cc1S(=O)(=O)Nc1ccc(Cl)cc1,,inactive: 4.53%
C=CCNC(=O)COC(=O)c1ccccc1C(=O)N(C)C1CCCCC1,"inconclusive: 89.1 µM [inhibitor, single point]",
CSc1nnc(NC(=O)c2nc(S(=O)(=O)Cc3ccccc3)ncc2Cl)s1,"inconclusive: 100 µM [inhibitor, single point]",
CCOC(=O)c1c(-c2ccc(F)cc2)csc1NC(=O)C1CCCO1 (stereo unspecified),"inconclusive: 89.1 µM [inhibitor, partial curve, poor fit]",
Cc1ccc2[nH]c(=O)c(C(c3nnnn3CC3CCCO3)N3CCc4ccccc4C3)cc2c1 (stereo unspecified),"inconclusive: 89.1 µM [inhibitor, single point]",
COc1ccccc1NC(=O)CN1C(=O)C2(SCC(=O)N2c2ccc(C)c(C)c2)c2ccccc21 (stereo unspecified),,inactive: -10.1%
Cc1ccc(C)c(S(=O)(=O)NCc2ccc(C(=O)N3CCC(Cc4ccccc4)CC3)cc2)c1,,inactive: 8.9%
CC(C)c1cccc(-c2ccc3c(c2)S(=O)(=O)c2cccc(C(=O)NCc4ccco4)c2C3=O)c1,"inconclusive: 56.2 µM [inhibitor, partial curve, poor fit]",
CCC(C)NC(=O)c1ccc2nc(Cc3ccc(OC)cc3)oc2c1 (stereo unspecified),inactive,
CCCc1cc(C(=O)Nc2sc(C)c(C)c2C(=O)OCC)no1,"inconclusive: 79.4 µM [inhibitor, partial curve, poor fit]",
CC(C)c1ccc(C2N=C(N)Nc3nc4ccccc4n32)cc1 (stereo unspecified),,inactive: -21.6%
Cc1cc(C)nc(NS(=O)(=O)c2ccc(-n3cccc3)cc2)n1,"inconclusive: 79.4 µM [inhibitor, partial curve, poor fit]",
O=C(Nc1nc2ccc(F)cc2s1)c1nc(S(=O)(=O)Cc2ccccc2)ncc1Cl,"inconclusive: 70.8 µM [inhibitor, partial curve, poor fit]",
C=Cc1ccc2c(c1)OCCOCCOCCOCCOCCO2,"inconclusive: 17.8 µM [inhibitor, full curve, poor fit]",
Cc1ccc(CN2CCN(/N=C/c3cc(Br)ccc3O)CC2)cc1,,inactive: -32.3%
O=C(NCc1cccc(Cl)c1)c1cnccn1,,inactive: -11.2%
O=C(c1ccc(-n2c(SCc3cccc(F)c3)nc3ccccc3c2=O)cc1)N1CCOCC1,"inconclusive: 79.4 µM [inhibitor, partial curve, poor fit]",
Cc1cccn2c(=O)c3cc(C(=O)NCc4ccccc4)c(=N)n(CCOCCO)c3nc12,,inactive: 11.3%
COc1ccccc1NS(=O)(=O)c1ccc(C)c(C(=O)N2CCN(c3ccc(O)cc3)CC2)c1,"inconclusive: 79.4 µM [inhibitor, single point]",

Structure (SMILES),Potency,"activity change, negative = inhibition"
CCN1CCc2c(sc(NC(=O)c3ccc(S(=O)(=O)N4CCOCC4)cc3)c2C(N)=O)C1,"inconclusive: 10 µM [inhibitor, full curve, poor fit]",
Cc1nc2nc(SCC(=O)NCCc3ccc(Cl)cc3)nn2c(C)c1Cc1ccccc1,,inactive: -0.733%
S=c1nc[nH]c2nc[nH]c12,"inconclusive: 79.4 µM [inhibitor, partial curve, poor fit]",
COc1cccc2sc(N3CCN(C(=O)c4ccco4)CC3)nc12,"inconclusive: 89.1 µM [inhibitor, single point]",
COc1cc([N+](=O)[O-])ccc1NC(=O)C[n+]1cccc(C(C)=O)c1,"inconclusive: 56.2 µM [inhibitor, partial curve, poor fit]",
COC(=O)c1sc2nc(C)nc(SCC(=O)Nc3sccc3C(N)=O)c2c1C,"inconclusive: 17.8 µM [inhibitor, full curve, poor fit]",
COCCn1c(=O)[nH]c2cc(C(=O)NCCCN3CCN(c4ccc(F)cc4)CC3)ccc2c1=O,,inactive: 9.48%
Cc1ccc2cc3cc(C(=O)NCc4ccc5c(c4)OCO5)oc3nc2c1,"inconclusive: 17.8 µM [inhibitor, full curve, poor fit]",
CC(C)Cn1c(=O)c2sccc2n2c(CCCC(=O)NCc3ccccc3Cl)nnc12,,inactive: -15.6%
O=C(NCCCn1ccnc1)/C(=C/c1ccco1)NC(=O)c1cccs1,"inconclusive: 50.1 µM [inhibitor, partial curve, poor fit]",
Nc1nc(Cl)cc(Oc2ccc([N+](=O)[O-])cc2)n1,"inconclusive: 89.1 µM [inhibitor, partial curve, poor fit]",
Cc1ccc(C)c2c1NC(C(=O)O)C1CC=CC21 (stereo unspecified),"inconclusive: 50.1 µM [inhibitor, partial curve, poor fit]",
CCN(CC)S(=O)(=O)c1cccc(C(=O)N/N=C/c2ccc(O)c(O)c2O)c1,"inconclusive: 35.5 µM [inhibitor, partial curve, poor fit]",
COc1ccc(CNC(=O)/C(C)=C\C(=O)O)cc1,,inactive: 0.913%
COc1ccc(Br)c2oc(S)cc(=O)c12,"inconclusive: 70.8 µM [inhibitor, partial curve, poor fit]",
Cc1ccc(CNC(=O)CSCc2ccc(F)cc2)cc1,inactive,
C=CCN1C(=O)CS/C1=C(\C#N)S(=O)(=O)c1ccc(C)cc1,"inconclusive: 17.8 µM [inhibitor, full curve, poor fit]",
CC(C)C[C@@H](CNCC(=O)[C@H](CC(C)C)NC(=O)c1[nH]cnc1C(=O)N[C@@H](C)CN)NC(=O)c1nc[nH]c1C(=O)N[C@@H](CC(=O)O)C(=O)O,"inconclusive: 70.8 µM [inhibitor, partial curve, poor fit]",
CN(C)c1ccc(C=c2c3cc([N+](=O)[O-])ccc3n3c2cc(-c2ccccc2)[n+]3C)cc1,"inconclusive: 50.1 µM [inhibitor, partial curve, poor fit]",
Cn1c(=O)cc(OCCCC(=O)Nc2ccc(F)cc2)c2ccccc21,,inactive: -0.805%
S=C1SCN(Cc2ccccn2)CN1Cc1ccco1,"inconclusive: 17.8 µM [inhibitor, full curve, poor fit]",
Cn1sccc1=O,"inconclusive: 79.4 µM [inhibitor, partial curve, poor fit]",
